Screen size: about 310,000 compounds; about 2,200 (0.71%) showed an effect of 50% or more. Effects have a minus sign here. Some of the results follow.

human ether-à-go-go-related gene (hERG) potassium channel, sequence (Q12809 whole entry, looked up): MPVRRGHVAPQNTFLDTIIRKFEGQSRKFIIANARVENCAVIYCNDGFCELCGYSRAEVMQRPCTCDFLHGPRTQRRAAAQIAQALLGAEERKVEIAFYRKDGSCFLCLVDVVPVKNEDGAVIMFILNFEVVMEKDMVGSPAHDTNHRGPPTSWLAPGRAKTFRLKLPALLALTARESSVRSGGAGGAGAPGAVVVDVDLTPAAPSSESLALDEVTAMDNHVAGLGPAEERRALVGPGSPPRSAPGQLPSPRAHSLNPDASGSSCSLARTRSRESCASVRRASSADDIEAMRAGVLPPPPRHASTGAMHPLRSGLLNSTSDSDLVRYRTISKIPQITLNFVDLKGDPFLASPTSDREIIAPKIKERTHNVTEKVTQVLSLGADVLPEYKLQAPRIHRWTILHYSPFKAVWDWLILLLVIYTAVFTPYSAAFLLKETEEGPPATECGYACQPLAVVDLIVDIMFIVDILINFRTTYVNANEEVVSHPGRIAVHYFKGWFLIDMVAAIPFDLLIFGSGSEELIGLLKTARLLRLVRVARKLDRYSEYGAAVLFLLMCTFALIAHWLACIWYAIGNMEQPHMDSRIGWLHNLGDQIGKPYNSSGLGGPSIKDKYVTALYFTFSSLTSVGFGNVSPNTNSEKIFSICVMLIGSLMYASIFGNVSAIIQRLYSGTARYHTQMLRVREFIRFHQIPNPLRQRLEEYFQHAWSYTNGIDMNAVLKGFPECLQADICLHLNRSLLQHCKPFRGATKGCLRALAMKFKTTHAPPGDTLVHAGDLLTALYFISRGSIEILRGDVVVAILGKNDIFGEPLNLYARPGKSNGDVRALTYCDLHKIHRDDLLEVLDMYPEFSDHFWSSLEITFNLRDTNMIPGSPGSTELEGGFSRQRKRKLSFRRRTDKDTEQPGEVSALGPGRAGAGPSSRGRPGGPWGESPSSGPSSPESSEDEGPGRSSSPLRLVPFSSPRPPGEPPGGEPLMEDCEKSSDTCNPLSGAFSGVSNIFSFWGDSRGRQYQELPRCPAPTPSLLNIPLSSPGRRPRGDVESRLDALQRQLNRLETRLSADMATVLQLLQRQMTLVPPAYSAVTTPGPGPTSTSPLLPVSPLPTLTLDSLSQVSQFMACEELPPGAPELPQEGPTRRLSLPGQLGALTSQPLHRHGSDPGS

The test concerns the target human ether-à-go-go-related gene (hERG) potassium channel (human, UniProt Q12809). In words: primary screen, population patch clamp on CHO cells stably expressing hERG.
Regarding `Cc1ccc(-c2nc(NC(=O)CSc3ccc4ccccc4n3)ns2)cc1`, the “hERG current change (%, negative = inhibition) at 1uM” value is given as 2.8%.
With `CC(C)(C)N1C(=O)c2ccc(C(=O)Nc3nccs3)cc2C1=O`, the “hERG current change (%, negative = inhibition) at 1uM” value stood at 3.2%.
To `S=C1NNC2(CC3CC2C2CCCC32)NN1` (stereo not drawn) belongs -1.06%.
The result for `CC(=O)c1ccc(NC(=S)NC(NC(=O)c2ccco2)C(Cl)(Cl)Cl)cc1` (stereo not drawn) reads -5.72%; that for `COc1ccccc1CCC(=O)OCC(=O)Nc1cccc(S(=O)(=O)N2CCCCC2)c1`, 7.57%.
Turning to `O=C(Nc1sc2c(c1C(=O)O)CCCC2)c1ccc(F)cc1`, the “hERG current change (%, negative = inhibition) at 1uM” value amounted to 13.3%.
To `O=C(c1ccc([N+](=O)[O-])o1)N1CCOCC1` belongs 9.96%; to `COC(=O)c1ccc(Oc2c(F)c(F)nc(N3CCOCC3)c2F)cc1`, 14.6%.
The result for `CCN(CC)CCOC(=O)c1cc2cc(COC)ccc2o1.CI` reads 9.98%; that for `O=C(COC(=O)c1ccc(-c2nnc(-c3ccccc3)o2)cc1)c1ccccc1`, 12.4%.
To `COC(=O)C(C(=O)Nc1cccc(Cl)c1C)C1CCCC1` (stereo not drawn) belongs 5.04%.
For the molecule `Cn1nc(C(C)(C)C)cc1C(=O)NNC(=O)c1ccccc1Cl`, the “hERG current change (%, negative = inhibition) at 1uM” value is 11.8%.
The result for `COCCN1C=C(C(=O)OC)C(c2cc3c(cc2Br)OCO3)C(C(=O)OC)=C1` reads 5.87%; that for `COc1ccc(C2(CN(C(C)=O)C(C)=O)CCCC2)cc1OC`, 9.22%.
For `N#Cc1ccc(Oc2ccc(S(=O)(=O)N3CCCC3)cn2)cc1`, the “hERG current change (%, negative = inhibition) at 1uM” value turned out to be 7.09%.
To `COC(=O)CN(Cc1ccco1)S(=O)(=O)c1ccccc1` belongs 0.396%.
The result for `CCn1c(-c2ccccc2Cl)nn(CC(=O)Nc2ccccc2OC)c1=S` reads 14%; that for `CCOC(=O)C1CCCN(Cc2ccc(OCc3ccccc3)cc2)C1.O=C(O)C(=O)O` (stereo not drawn), -3.15%; that for `Cc1c(C(=O)OC(C)C)sc(N)c1C(=O)OC(C)C`, 1.71%.
The result for `COc1ccccc1N1CCN(c2nc(C)nc3c2oc2ccccc23)CC1.Cl` reads 9.97%.
As for `CC1CN(CCOCCSc2ccccc2)CC(C)O1.Cl` (stereo not drawn), the “hERG current change (%, negative = inhibition) at 1uM” value is 3.85%.
Consider `O=C(CC(=O)N/N=C\c1ccc(F)cc1)NCCc1ccccc1`, for which the “hERG current change (%, negative = inhibition) at 1uM” value stood at 21.6%.
To `CC1CCN(C(=O)c2ccc3c(c2)NC(=O)CN3)CC1` belongs 11.2%; to `COc1ccccc1N1CCN(C(c2cccs2)C(C)NC(=O)c2ccncc2)CC1` (stereo not drawn), 6.16%.
To `OCCNCCCCCOc1ccc(F)cc1` belongs 7.98%; to `O=C1NCCN1Cc1ccc(F)cc1`, -1.03%.
Turning to `COc1cccc(/C=N/NC(=O)c2c(C)nc3ccc(Cl)cn23)c1O`, the “hERG current change (%, negative = inhibition) at 1uM” value turned out to be 15.1%.
As to `Cc1cccc(C)c1NC(=O)CN(C)C(=O)c1ccccc1C(=O)N(C)Cc1ccccc1`, the “hERG current change (%, negative = inhibition) at 1uM” value was determined as 11.3%.
To `COc1ccc(C(=O)Nc2ccc3c(c2)OCCO3)cc1Br` belongs 14.3%; to `CCc1cc2cc(C(=O)N3CCN(Cc4ccccc4)CC3)sc2s1`, 3.36%; to `CCOC(=O)C1(CCOC)CCN(C(=O)c2ccc(CSC)o2)CC1`, 8.08%.
The result for `CCc1ccccc1NC(=O)c1cc(-c2ccc(F)cc2)on1` reads 12.6%; that for `O=C1COc2ccc(C(=O)COC(=O)/C=C/c3ccco3)cc2N1`, 13.9%.
To `COc1ccc(-c2cc(C(F)(F)F)nc(SCC(=O)NCc3cccs3)n2)cc1` belongs 10.3%; to `COc1cccc(OC)c1C(=O)NNC(=O)c1ccc(F)cc1`, 15.8%.
On to `COc1ccc(-n2c(=O)[nH]c3c(C(N)=O)nc(C4CCCCC4)nc32)cc1`, for which the “hERG current change (%, negative = inhibition) at 1uM” value was -0.925%.
To `CC(C)(C)C(=O)Nc1ccccc1C(=O)NCc1cccnc1` belongs 17.9%; to `O=c1c2ccccc2cnn1Cc1n[nH]c(=S)n1-c1ccccc1F`, 12.2%.
To `Fc1cccc2sc(N3CCOCC3)nc12` belongs 10.6%; to `COc1cc(-c2cc(=O)c3c(O)cc(O)cc3o2)ccc1O`, 15.5%.
The result for `O=C(Nc1ccccc1[N+](=O)[O-])c1cncc(Br)c1` reads 15%; that for `CC(=O)Nc1c(NC(=O)CC#N)[nH]c2c(c1=O)c(=O)n(C)c(=O)n2C`, 9.14%; that for `CCCCC(=O)N/N=C/c1c(O)n(Cc2ccco2)c(=O)[nH]c1=O`, 16.9%.
As for `OC(c1ccc(Cl)cc1)c1nnc(-c2ccccc2)o1` (stereo not drawn), the “hERG current change (%, negative = inhibition) at 1uM” value stood at 3.02%.
On to `Nc1cc([N+](=O)[O-])ccc1Nc1ccc(O)cc1`, for which the “hERG current change (%, negative = inhibition) at 1uM” value turned out to be 6.98%.

(Values after article PMC4336329 (PLoS ONE, 2015).)
